Inconclusive means that the source gave no clear call. Such entries were picked first, then a sample of the others. A potency beside an inconclusive call is a rough fit, not a confirmed value. Some compounds were tested as several samples or in several runs, with calls that do not always agree. Activity calls are given as the source filed them. Unless noted, calls follow the shape of the dose curve; as a rule, active = well fitted curve in the direction sought with a large enough effect in the repeat runs; inconclusive = weak or mixed curves; inactive = no such curve, though single readings can be large; an effect the other way counts as inactive or inconclusive.
Experiments:
[1] = molecular target: Peroxisome proliferator-activated receptor gamma (Homo sapiens) (UniProt P37231); experiment: qHTS assay to identify small molecule antagonists of the peroxisome proliferator-activated receptor gamma (PPARg) signaling pathway (AID 743191; calls by dose curve; also: nearly all actives have a fitted effect of over 30% in size; as to ratio activity, negative = inhibition: % is scaled to controls: 0 for no effect and ±100 for the full control effect); conditions: HEK293H PPARg-UAS-bla, beta-lactamase ratio, antagonist, 17 h; ratio activity, negative = inhibition: at 62.6 µM (top of the series) unless noted
Procedure, shortened: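 Beta-lactamase reporter under UAS control in HEK293H PPARg-bla cells; compound treatment 17 h at 37C. Read-out: fluorescence intensity after 1 h room-temperature incubation with LiveBLAzer B/G FRET substrate.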

[2] = qHTS assay to identify small molecule antagonists of the peroxisome proliferator-activated receptor gamma (PPARg) signaling pathway - cell viability counter screen (AID 743194); conditions: PPARg-bla HEK293H viability, CellTiter-Glo luminescence, 17 h, co-treated with 50 nM rosiglitazone; activity change, negative = cytotoxicity: at 62.6 µM (top of the series) unless noted; also: nearly all actives have a fitted effect of over 55% in size
Procedure, shortened: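 Viability was measured as CellTiter-Glo luminescence in GeneBLAzer PPARg UAS-bla HEK293H cells. These cells had been exposed 17 h at 37 C to compounds together with rosiglitazone at 50 nM final, with the beta-lactamase readout taken in the same wells.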

[3] = qHTS assay for small molecule agonists of the antioxidant response element (ARE) signaling pathway (AID 743202; active = well fitted activation curve with a large enough effect in the signal ratio in the repeat runs, not every such curve was filed as active; inconclusive = weak or mixed curves, or effect the other way; inactive = no such curve, though single readings can be large or run the other way; the % refers to the signal ratio; as to activation: % is scaled to controls: 0 for no effect and ±100 for the full control effect); conditions: HepG2 ARE-bla reporter, beta-lactamase FRET, 16 h; activation: at 73.3 µM (top of the series) unless noted
Procedure, shortened: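 An ARE-responsive beta-lactamase gene stably integrated in HepG2 cells serves as reporter. After 5 h plating and 16 h compound incubation at 37 C, fluorescence of the B/G FRET substrate was measured.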

[4] = qHTS assay for small molecule activators of the heat shock response signaling pathway (AID 743210; active = well fitted activation curve with a large enough effect in the signal ratio in the repeat runs, with a control signal flat, not every such curve was filed as active; inconclusive = weak or mixed curves; the % refers to the signal ratio); conditions: HeLa HSE-bla reporter, beta-lactamase ratio, 5 h; activation: at 62.6 µM (top of the series) unless noted
Procedure, shortened: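 In HSE-bla HeLa cells, 5 h compound incubation (37 C) precedes addition of LiveBLAzer B/G substrate; after 2.5 h at room temperature, fluorescence intensity indicates reporter induction.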

[5] = qHTS assay to identify small molecule agonists of the peroxisome proliferator-activated receptor delta (PPARd) signaling pathway - cell viability counter screen (AID 743211); conditions: PPARd-bla HEK293H viability, CellTiter-Glo luminescence, 17 h; activity change, negative = cytotoxicity: at 62.6 µM (top of the series) unless noted; also: nearly all actives have a fitted effect of over 55% in size
Procedure, shortened: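 Viability was measured as CellTiter-Glo luminescence (30 min, room temperature) in the same wells as the beta-lactamase readout. GeneBLAzer PPARd UAS-bla HEK293H cells received compound after 5 h plating and were incubated 17 h at 37 C.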

[6] = molecular target: Peroxisome proliferator-activated receptor delta (Homo sapiens) (UniProt Q03181); experiment: qHTS assay to identify small molecule agonists of the peroxisome proliferator-activated receptor delta (PPARd) signaling pathway (AID 743212; calls by dose curve); conditions: HEK293H PPARd-UAS-bla, beta-lactamase FRET ratio, 17 h; activation: at 62.6 µM (top of the series) unless noted
Procedure, shortened: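 HEK293H UAS-bla reporter cells, human PPARd system; compounds delivered in DMSO after 5 h plating, then at 37 C. Beta-lactamase FRET read, 2 h RT substrate step.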

[7] = qHTS assay to identify small molecule antagonists of the peroxisome proliferator-activated receptor delta (PPARd) signaling pathway - cell viability counter screen (AID 743213); conditions: PPARd-bla HEK293H viability, CellTiter-Glo luminescence, 17 h; viability change, negative = cytotoxic: at 62 µM (top of the series) unless noted; also: nearly all actives have a fitted effect of over 50% in size
Procedure, shortened: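 PPARd-bla HEK293H cells were treated with compounds plus agonist L165041 (300 nM final) for 17 h at 37 C. Viability was then read in the same wells by CellTiter-Glo luminescence after 30 min at room temperature.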

[8] = molecular target: Bile acid receptor (Homo sapiens) (UniProt Q96RI1); experiment: qHTS assay to identify small molecule antagonists of the farnesoid-X-receptor (FXR) signaling pathway (AID 743217; active = well fitted inhibition curve with a large enough effect in the signal ratio in the repeat runs, not every such curve was filed as active; inconclusive = weak or mixed curves, or effect the other way; inactive = no such curve, though single readings can be large or run the other way; the % refers to the signal ratio); conditions: HEK293T FXR-UAS-bla, beta-lactamase ratio, CDCA-stimulated, 16 h; activity change, negative = inhibition: at 62.6 µM (top of the series) unless noted
Procedure, shortened: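 Antagonist mode against 50 uM (final) chenodeoxycholic acid stimulation in FXR-bla HEK 293T cells, 16 h at 37 °C. Inhibition detected as reduced beta-lactamase activity via LiveBLAzer B/G FRET fluorescence after 2 h at room temperature.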

[9] = qHTS assay to identify small molecule agonists of the farnesoid-X-receptor (FXR) signaling pathway - cell viability counter screen (AID 743218); conditions: FXR-bla HEK293T viability, CellTiter-Glo luminescence, 16 h; viability change, negative = cytotoxic: at 62.6 µM (top of the series) unless noted; also: nearly all actives have a fitted effect of over 45% in size
Procedure, shortened: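 Cytotoxicity counter-screen run in parallel, same wells: FXR-UAS-bla HEK 293T cells dosed 16 h at 37 C, viability read by CellTiter-Glo luminescence after 30 min at room temperature.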

[10] = molecular target: Bile acid receptor (Homo sapiens) (UniProt Q96RI1); experiment: qHTS assay to identify small molecule agonists of the farnesoid-X-receptor (FXR) signaling pathway (AID 743220; active = well fitted activation curve with a large enough effect in the signal ratio in the repeat runs, not every such curve was filed as active; inconclusive = weak or mixed curves, or effect the other way; the % refers to the signal ratio; as to activation: % is scaled to controls: 0 for no effect and ±100 for the full control effect); conditions: HEK293T FXR-UAS-bla, beta-lactamase FRET ratio, 16 h
Procedure, shortened: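 Beta-lactamase reporter under UAS control in GeneBLAzer FXR HEK 293T cells (5000/well) measured with LiveBLAzer FRET substrate after 2 h at room temperature. Compound exposure lasted 16 h at 37C.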

[11] = molecular target: Vitamin D3 receptor (Homo sapiens) (UniProt P11473); experiment: qHTS assay to identify small molecule agonists of the vitamin D receptor (VDR) signaling pathway (AID 743222; calls by dose curve; as to activation: % is scaled to controls: 0 for no effect and ±100 for the full control effect); conditions: HEK293T VDR-UAS-bla, beta-lactamase FRET ratio, 16 h; activation: at 63.5 µM (top of the series) unless noted
Procedure, shortened: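 Quantitative HTS agonist-mode screen: compounds in DMSO were pin-transferred onto VDR-bla cells and incubated 16 h at 37C, 5% CO2. Reporter activity was detected with LiveBLAzer B/G FRET substrate after 2 h at room temperature.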

[12] = qHTS assay for small molecule agonists of the antioxidant response element (ARE) signaling pathway - cell viability counter screen (AID 743203; calls by dose curve; also: nearly all actives have a fitted effect of over 55% in size); conditions: ARE-bla HepG2 viability, CellTiter-Glo luminescence, 16 h; viability change, negative = cytotoxic: at 73.3 µM (top of the series)
Procedure, shortened: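 Seeded at 2,000 cells/well, ARE-bla HepG2 cells were incubated 5 hrs before compound addition. After 16 hrs of treatment at 37C with 5% CO2, CellTiter-Glo reagent was added and luminescence read 30 min later.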

[13] = molecular target: Peroxisome proliferator-activated receptor delta (Homo sapiens) (UniProt Q03181); experiment: qHTS assay to identify small molecule antagonists of the peroxisome proliferator-activated receptor delta (PPARd) signaling pathway (AID 743215; active = well fitted inhibition curve with a large enough effect in the signal ratio in the repeat runs, not every such curve was filed as active; inconclusive = weak or mixed curves, or effect the other way; inactive = no such curve, though single readings can be large or run the other way; the % refers to the signal ratio;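 also: cells stimulated with agonist L165041 at 300 nM final during compound exposure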); conditions: HEK293H PPARd-UAS-bla, beta-lactamase FRET ratio, antagonist, 17 h; ratio activity, negative = inhibition: at 62 µM (top of the series) unless noted
Procedure, shortened: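 Inhibition of L165041-driven (300 nM final) PPARd signaling is scored in HEK293H UAS-bla cells. Exposure lasts 17 h at 37 C; beta-lactamase activity is then read by FRET substrate fluorescence after 2 h at room temperature.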

[14] = qHTS assay to identify small molecule antagonists of the farnesoid-X-receptor (FXR) signaling pathway - cell viability counter screen (AID 743221; active = well fitted cell-killing curve with a large enough effect in the repeat runs, not every such curve was filed as active; inconclusive = weak or mixed curves, or effect the other way; inactive = no such curve, though single readings can be large or run the other way; also: nearly all actives have a fitted effect of over 50% in size); conditions: FXR-bla HEK293T viability, CellTiter-Glo luminescence, 16 h; activity change, negative = cytotoxicity: at 62.6 µM (top of the series) unless noted
Procedure, shortened: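 Cytotoxicity counter screen run in the FXR-bla reporter wells: HEK 293T cells exposed to compound with 50 uM (final) chenodeoxycholic acid for 16 h, 37 C, then viability measured by CellTiter-Glo luminescence after 30 min, room temperature.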

[15] = molecular target: Vitamin D3 receptor (Homo sapiens) (UniProt P11473); experiment: qHTS assay to identify small molecule antagonists of the vitamin D receptor (VDR) signaling pathway (AID 743223; active = well fitted inhibition curve with a large enough effect in the signal ratio in the repeat runs, not every such curve was filed as active; inconclusive = weak or mixed curves, or effect the other way; inactive = no such curve, though single readings can be large or run the other way; the % refers to the signal ratio); conditions: VDR-UAS-bla HEK293T, beta-lactamase FRET ratio, 16 h; activity change, negative = inhibition: at 61 µM (top of the series) unless noted
Procedure, shortened: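 Antagonist mode: compound added to VDR-bla cells alongside agonist 1alpha,25-dihydroxyvitamin D3 (3 nM final), incubation 16 h at 37C. Read-out is LiveBLAzer FRET fluorescence, 2 h at room temperature.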

[16] = qHTS assay for small molecule activators of the heat shock response signaling pathway - cell viability counter screen (AID 743209); conditions: HSE-bla HeLa viability, CellTiter-Glo luminescence, 5 h; activity change, negative = cytotoxicity: at 62.6 µM (top of the series) unless noted; also: nearly all actives have a fitted effect of over 50% in size
Procedure, shortened: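 First, HSE-bla HeLa cells were seeded at 1500 cells/well and kept overnight at 37 C. Next, compounds were pinned in and incubated 5 h. After the FRET substrate step, CellTiter-Glo was added and luminescence read 30 min later.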

[17] = qHTS assay to identify small molecule agonists of the vitamin D receptor (VDR) signaling pathway - cell viability counter screen (AID 743224); conditions: VDR-bla HEK293T viability, CellTiter-Glo luminescence, 16 h; activity change, negative = cytotoxicity: at 62.6 µM (top of the series); also: nearly all actives have a fitted effect of over 50% in size
Procedure, shortened: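 Viability is measured in the same wells as the VDR-bla reporter assay: after 16 h compound treatment and 2 h substrate loading, CellTiter-Glo is added and luminescence read 30 min later.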

[18] = activation: at 62.6 µM (top of the series) unless noted
Potency is read from the fitted curve at half-maximal effect; tags tell the direction and shape of the fitted curve or compound fluorescence and quenching.

UniProt Q03181, sequence (Q03181 whole entry, looked up): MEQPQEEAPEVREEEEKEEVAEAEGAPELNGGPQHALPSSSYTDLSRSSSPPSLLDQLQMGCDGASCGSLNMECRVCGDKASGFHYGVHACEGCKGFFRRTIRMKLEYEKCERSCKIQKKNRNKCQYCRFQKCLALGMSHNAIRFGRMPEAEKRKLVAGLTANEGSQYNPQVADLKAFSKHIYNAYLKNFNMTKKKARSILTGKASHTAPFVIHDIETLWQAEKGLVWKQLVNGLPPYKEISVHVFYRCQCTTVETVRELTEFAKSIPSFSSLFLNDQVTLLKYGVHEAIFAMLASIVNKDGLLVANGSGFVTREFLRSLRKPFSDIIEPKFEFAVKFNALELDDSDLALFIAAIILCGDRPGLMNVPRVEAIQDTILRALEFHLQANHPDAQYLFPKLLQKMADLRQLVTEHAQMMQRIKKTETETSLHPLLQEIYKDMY
UniProt P37231, sequence (P37231 whole entry, looked up): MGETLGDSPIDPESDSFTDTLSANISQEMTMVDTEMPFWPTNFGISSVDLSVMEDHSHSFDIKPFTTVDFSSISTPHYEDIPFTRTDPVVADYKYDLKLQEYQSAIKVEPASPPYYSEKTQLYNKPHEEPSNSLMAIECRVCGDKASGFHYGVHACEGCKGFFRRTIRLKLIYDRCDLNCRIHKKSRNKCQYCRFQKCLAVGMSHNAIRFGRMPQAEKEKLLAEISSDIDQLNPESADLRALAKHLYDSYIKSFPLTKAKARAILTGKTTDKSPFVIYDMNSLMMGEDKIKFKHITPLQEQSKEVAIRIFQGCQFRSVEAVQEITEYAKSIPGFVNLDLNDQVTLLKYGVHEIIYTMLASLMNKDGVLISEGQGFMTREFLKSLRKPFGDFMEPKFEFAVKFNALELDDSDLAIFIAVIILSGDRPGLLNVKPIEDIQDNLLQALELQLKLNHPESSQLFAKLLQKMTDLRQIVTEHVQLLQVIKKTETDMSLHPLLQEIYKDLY
UniProt P11473, sequence (P11473 whole entry, looked up): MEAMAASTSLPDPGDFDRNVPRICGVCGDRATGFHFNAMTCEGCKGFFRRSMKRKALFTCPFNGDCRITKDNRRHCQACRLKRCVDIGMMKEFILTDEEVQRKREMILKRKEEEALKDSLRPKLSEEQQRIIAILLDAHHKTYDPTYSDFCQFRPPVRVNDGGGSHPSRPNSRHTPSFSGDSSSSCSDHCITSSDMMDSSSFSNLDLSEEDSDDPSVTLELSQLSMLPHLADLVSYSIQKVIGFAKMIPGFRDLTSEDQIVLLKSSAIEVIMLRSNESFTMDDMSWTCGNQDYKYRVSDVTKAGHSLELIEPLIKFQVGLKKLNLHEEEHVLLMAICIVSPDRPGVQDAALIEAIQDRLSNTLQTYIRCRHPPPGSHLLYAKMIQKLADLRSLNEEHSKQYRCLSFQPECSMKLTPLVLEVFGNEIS
UniProt Q96RI1, sequence (Q96RI1 whole entry, looked up): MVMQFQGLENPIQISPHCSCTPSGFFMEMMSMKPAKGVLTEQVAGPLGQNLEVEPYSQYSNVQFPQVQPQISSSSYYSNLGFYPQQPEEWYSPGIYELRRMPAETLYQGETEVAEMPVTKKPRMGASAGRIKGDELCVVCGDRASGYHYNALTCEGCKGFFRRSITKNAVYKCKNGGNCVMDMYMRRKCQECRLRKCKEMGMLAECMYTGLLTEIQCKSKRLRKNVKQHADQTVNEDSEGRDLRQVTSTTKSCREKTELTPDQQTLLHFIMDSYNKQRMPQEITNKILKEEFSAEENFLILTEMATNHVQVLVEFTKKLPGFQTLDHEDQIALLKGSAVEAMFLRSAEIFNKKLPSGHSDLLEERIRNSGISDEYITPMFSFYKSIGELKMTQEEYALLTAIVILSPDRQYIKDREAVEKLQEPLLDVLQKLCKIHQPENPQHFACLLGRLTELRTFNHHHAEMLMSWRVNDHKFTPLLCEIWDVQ

CC/C=C\C/C=C\C/C=C\CCCCCCCC(=O)O
inconclusive: Potency [1] 7.69 µM [activator] | Potency [2] 0.0109 µM [rising, single point] | Potency [4] 38.9 µM | Potency [5] 54.9 µM [cytotoxic, single point] | Potency [6] 43.6 µM | Potency [8] 61.7 µM [fluorescent, single point] | Potency [9] 54.9 µM [cytotoxic, single point] | activation [10, 18] -1.49% | Potency [11] 30.9 µM [rising, partial curve, poor fit]
inactive: activation ([10]; at 62.6 µM (top of the series)) -1.15%
active: Potency [3] 34.4 µM | Potency [7] 34.7 µM

CC(C)=CCC/C(C)=C/CC/C(C)=C/C(=O)OCC(=O)[C@@]1(O)CC[C@H]2[C@@H]3CCC4=CC(=O)C=C[C@]4(C)[C@H]3[C@@H](O)C[C@@]21C
inconclusive: ratio activity, negative = inhibition [1] 10.3% | Potency [2] 33.5 µM [cytotoxic, single point] | Potency [3] 33.5 µM [single point] | Potency [12] 33.5 µM [cytotoxic, single point] | Potency [4] 37.6 µM [falling, single point] | Potency [6] 84.1 µM [rising, partial curve, poor fit] | Potency [7] 18.8 µM [cytotoxic] | Potency [13] 29.8 µM [fluorescent, partial curve, poor fit] | Potency [8] 33.5 µM [single point] | Potency [9] 33.5 µM [cytotoxic, single point] | Potency [10, 18] 33.5 µM [rising, partial curve, poor fit] | Potency [14] 33.5 µM | activation [11] -31.2% | Potency [15] 7.56 µM [activator, partial curve, poor fit]

C=CC(=O)OCC1CC2CC1C1CCC(COC(=O)C=C)C21 (stereo not drawn)
inconclusive: Potency [1] 54.9 µM | Potency [2] 61.6 µM [cytotoxic, single point] | activation [3] 19.1% | Potency [16] 21.9 µM [cytotoxic, full curve] | Potency [4] 40.4 µM | Potency [7] 54.9 µM [cytotoxic] | Potency [8] 61.6 µM | activation [10, 18] 0.84% | Potency [14] 54.9 µM | Potency [15] 61.6 µM [inhibitor] | Potency [17] 54.9 µM [cytotoxic]
inactive: Potency [5]
